Laboratory results taken from the supplement of paper PMC8007513.
Where a name gives a salt, the structure may show the parent alone. ± gives the standard error. The campaign covered roughly 1,300 compounds. About 130 (10%) showed an effect of 50% or more. Only a part is listed here, and it is no random draw.

System: Trichoderma virens ATCC 9645
Experiment: growth yield (OD600) with compound + IPBC relative to untreated control; higher = less growth inhibition
Settings: compound concentration: 100 uM, IPBC concentration: 200 ng/ml
Procedure, shortened: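 Trichoderma virens ATCC 9645 spores at 15,000 spores ml^−1 in potato dextrose broth were exposed in 96-well plates to library compounds at 100 μM final, with or without a biocide at 200 ng ml^−1. After growth at 30 °C, OD600 was read at 40 h and 72 h. Values are growth relative to the control without either agent, averaged over duplicate screens.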

With `COc1ccc(CCN(C)CCCC(C#N)(c2ccc(OC)c(OC)c2)C(C)C)cc1OC` (configuration not stated) [Verapamil hydrochloride] + CCCCNC(=O)OCC#CI [3-iodo-2-propynyl butylcarbamate (IPBC)] the growth yield (40 h) was 74.2 ± 11% and the growth yield (72 h) was 73.6 ± 7.8%.
For `Cc1onc(-c2ccccc2)c1-c1ccc(S(N)(=O)=O)cc1` [Valdecoxib] + CCCCNC(=O)OCC#CI [3-iodo-2-propynyl butylcarbamate (IPBC)], the growth yield (40 h) was 84.98 ± 0.16% and the growth yield (72 h) was 97.64 ± 0.94%.
`CCCc1cc(=O)[nH]c(=S)[nH]1` [Propylthiouracil] + CCCCNC(=O)OCC#CI [3-iodo-2-propynyl butylcarbamate (IPBC)] was tested, and the growth yield (40 h) was 90.1 ± 11% and the growth yield (72 h) was 93 ± 6.4%.
In the case of `C[N+]1(CCCCC[N+]2(C)CCCC2)CCCC1` [Pentolinium bitartrate] + CCCCNC(=O)OCC#CI [3-iodo-2-propynyl butylcarbamate (IPBC)], the growth yield (40 h) is reported as 88 ± 1.6% and the growth yield (72 h) is reported as 96.7 ± 0.84%.
`Oc1ncnc2[nH]ncc12` [Allopurinol] + CCCCNC(=O)OCC#CI [3-iodo-2-propynyl butylcarbamate (IPBC)] was tested, and the growth yield (40 h) was 93.4 ± 4.8% and the growth yield (72 h) was 94.28 ± 0.32%.
Molecule `CCCCCCC[N+](CC)(CC)CCCCc1ccc(Cl)cc1` [Clofilium tosylate] + CCCCNC(=O)OCC#CI [3-iodo-2-propynyl butylcarbamate (IPBC)] has a growth yield (40 h) of 13.5 ± 5.9% and a growth yield (72 h) of 74.46 ± 0.42%.
`CNCCCC1c2ccccc2C=Cc2ccccc21` [Protriptyline hydrochloride] + CCCCNC(=O)OCC#CI [3-iodo-2-propynyl butylcarbamate (IPBC)] was tested, and the growth yield (40 h) was 71.6 ± 3.6% and the growth yield (72 h) was 92.3 ± 2.7%.
With `C[C@]12CCC(=O)C=C1CC[C@@H]1[C@@H]2[C@@H](O)C[C@@]2(C)[C@H]1CC[C@]2(O)C(=O)CO` [Hydrocortisone base] + CCCCNC(=O)OCC#CI [3-iodo-2-propynyl butylcarbamate (IPBC)] the growth yield (40 h) was 80.1 ± 1.6% and the growth yield (72 h) was 89.98 ± 0.21%.
`Nc1nc(Cl)nc2c1ncn2[C@H]1C[C@H](O)[C@@H](CO)O1` [Cladribine] + CCCCNC(=O)OCC#CI [3-iodo-2-propynyl butylcarbamate (IPBC)] gave a growth yield (40 h) of 95 ± 11% and a growth yield (72 h) of 96.1 ± 7.5%.
`COc1cccc2c1C(=O)c1c(O)c3c(c(O)c1C2=O)C[C@@](O)(C(=O)CO)C[C@@H]3O[C@H]1C[C@H](N)[C@H](O)[C@H](C)O1` [Doxorubicin hydrochloride] + CCCCNC(=O)OCC#CI [3-iodo-2-propynyl butylcarbamate (IPBC)] was tested, and the growth yield (40 h) was 8.1 ± 1.1% and the growth yield (72 h) was 34.8 ± 20%.
`CC1(C)S[C@@H]2[C@H](NC(=O)[C@H](N)c3ccc(O)cc3)C(=O)N2[C@H]1C(=O)O` [Amoxicillin] + CCCCNC(=O)OCC#CI [3-iodo-2-propynyl butylcarbamate (IPBC)] showed a growth yield (40 h) of 77.4 ± 0.79% and a growth yield (72 h) of 88.8 ± 3.5%.
In the case of `N=C(N)c1ccc(OCCCCCOc2ccc(C(=N)N)cc2)cc1` [Pentamidine isethionate] + CCCCNC(=O)OCC#CI [3-iodo-2-propynyl butylcarbamate (IPBC)], the growth yield (40 h) is reported as 2.7 ± 0.48% and the growth yield (72 h) is reported as 2.1 ± 0.42%.
Work on `Cn1c(NCCN(CCO)CCCc2ccc([N+](=O)[O-])cc2)cc(=O)n(C)c1=O` [Nifekalant] + CCCCNC(=O)OCC#CI [3-iodo-2-propynyl butylcarbamate (IPBC)] yielded a growth yield (40 h) of 101 ± 17% and a growth yield (72 h) of 97.4 ± 8.9%.
For `Fc1ccc(C(c2ccc(F)cc2)N2CCN(C/C=C/c3ccccc3)CC2)cc1` [Flunarizine dihydrochloride] + CCCCNC(=O)OCC#CI [3-iodo-2-propynyl butylcarbamate (IPBC)], the growth yield (40 h) was 3.81 ± 0.32% and the growth yield (72 h) was 3.78 ± 0.42%.
In the case of `Clc1ccc(CSC(Cn2ccnc2)c2ccc(Cl)cc2Cl)cc1` (configuration not stated) [Sulconazole nitrate] + CCCCNC(=O)OCC#CI [3-iodo-2-propynyl butylcarbamate (IPBC)], the growth yield (40 h) is reported as 3.02 ± 0.16% and the growth yield (72 h) is reported as 2.41 ± 0.1%.
With `Nc1ccn([C@@H]2O[C@H](CO)[C@@H](O)C2(F)F)c(=O)n1` [Gemcitabine] + CCCCNC(=O)OCC#CI [3-iodo-2-propynyl butylcarbamate (IPBC)] the growth yield (40 h) was 105 ± 1.9% and the growth yield (72 h) was 102.88 ± 0.1%.
`CN1C(=O)CC(c2ccccc2)C1=O` (configuration not stated) [Phensuximide] + CCCCNC(=O)OCC#CI [3-iodo-2-propynyl butylcarbamate (IPBC)] showed a growth yield (40 h) of 92.9 ± 6.2% and a growth yield (72 h) of 94.3 ± 4.9%.
For `CN(C)CCN(Cc1ccccc1)c1ccccn1` [Tripelennamine hydrochloride] + CCCCNC(=O)OCC#CI [3-iodo-2-propynyl butylcarbamate (IPBC)], the growth yield (40 h) was 95 ± 3.5% and the growth yield (72 h) was 95.2 ± 1.9%.
For `CC1CNc2c(cccc2S(=O)(=O)N[C@@H](CCCNC(=N)N)C(=O)N2CC[C@@H](C)C[C@@H]2C(=O)O)C1` (some centres not stated) [Argatroban] + CCCCNC(=O)OCC#CI [3-iodo-2-propynyl butylcarbamate (IPBC)], the growth yield (40 h) was 86.2 ± 4.3% and the growth yield (72 h) was 84.4 ± 4.7%.
With `CC(=O)O[C@@]12CO[C@@H]1C[C@H](O)[C@@]1(C)C(=O)[C@H](O)C3=C(C)[C@@H](OC(=O)[C@H](O)[C@@H](NC(=O)OC(C)(C)C)c4ccccc4)C[C@@](O)([C@@H](OC(=O)c4ccccc4)[C@H]21)C3(C)C` [Docetaxel] + CCCCNC(=O)OCC#CI [3-iodo-2-propynyl butylcarbamate (IPBC)] the growth yield (40 h) was 118 ± 4.8% and the growth yield (72 h) was 108 ± 1.5%.
In the case of `N=C(N)NC(=O)Cc1c(Cl)cccc1Cl` [Guanfacine hydrochloride] + CCCCNC(=O)OCC#CI [3-iodo-2-propynyl butylcarbamate (IPBC)], the growth yield (40 h) is reported as 79.9 ± 4.3% and the growth yield (72 h) is reported as 90.7 ± 3.7%.
`CCC(=O)O[C@@](Cc1ccccc1)(c1ccccc1)[C@@H](C)CN(C)C` [Levopropoxyphene napsylate] + CCCCNC(=O)OCC#CI [3-iodo-2-propynyl butylcarbamate (IPBC)] was tested, and the growth yield (40 h) was 85.1 ± 3.2% and the growth yield (72 h) was 90.6 ± 1.9%.
Work on `CC(=O)[C@H]1CC[C@H]2[C@@H]3CCC4=CC(=O)CC[C@]4(C)[C@H]3CC[C@]12C` [Progesterone] + CCCCNC(=O)OCC#CI [3-iodo-2-propynyl butylcarbamate (IPBC)] yielded a growth yield (40 h) of 51 ± 3% and a growth yield (72 h) of 77.5 ± 3.9%.
With `CN(C)CC/C=C1/c2ccccc2Sc2ccc(Cl)cc21` [Chlorprothixene hydrochloride] + CCCCNC(=O)OCC#CI [3-iodo-2-propynyl butylcarbamate (IPBC)] the growth yield (40 h) was 24.5 ± 7.9%.
